# In the supplement of paper PMC8728848:
# The list shows a part of the results.
# B1: CFEM-CGl (Candida glabrata), Q6FRS0 (protein)
# chain: VLATPPACLLACVAQVSKQSSQCHTLNQVGCFCENENTAIKNCLDSICPNGNSDAAYTAFKNSCGDVGKAVASV
# What was measured:
# Assay in all cases: glycan array binding signal (z-score within array); higher = stronger binding
# Conditions in all cases: glycan notation: IUPAC condensed, linker removed
# [1] = target: Gal3S(b1-3)[Fuc(a1-4)]GlcNAc
# In short: (§1)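 The Consortium for Functional Glycomics database supplied 3228 glycan arrays, of which those lacking an available protein sequence were dropped. The binding signal, a within-array Z-score, was averaged across arrays of the same protein sequence and across linkers. Negative scores can be read as non-binding.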
# Gal3S(b1-4)Glc = target: Gal3S(b1-4)Glc
# In short: as §1
# Gal3S(b1-4)Glc6S = target: Gal3S(b1-4)Glc6S
# In short: as §1
# Gal3S(b1-4)GlcNAc = target: Gal3S(b1-4)GlcNAc
# In short: as §1
# [2] = target: Gal3S(b1-4)[Fuc(a1-3)]Glc6S
# In short: as §1
# [3] = target: Gal3S(b1-4)[Fuc(a1-3)]GlcNAc
# In short: as §1
# [4] = target: Gal3S(b1-4)[Fuc(a1-3)]GlcNAc6S
# In short: as §1
# Gal3S4S(b1-4)GlcNAc = target: Gal3S4S(b1-4)GlcNAc
# In short: as §1
# Gal3S6S(b1-4)GlcNAc = target: Gal3S6S(b1-4)GlcNAc
# In short: as §1
# Gal3S6S(b1-4)GlcNAc6S = target: Gal3S6S(b1-4)GlcNAc6S
# In short: as §1
# Gal4S(b1-4)GlcNAc = target: Gal4S(b1-4)GlcNAc
# In short: as §1
# Gal4S6S(b1-4)GlcNAc = target: Gal4S6S(b1-4)GlcNAc
# In short: as §1
# Gal6P(b1-4)GlcNAc = target: Gal6P(b1-4)GlcNAc
# In short: as §1
# Gal6S(b1-3)GlcNAc = target: Gal6S(b1-3)GlcNAc
# In short: as §1
# Gal6S(b1-3)GlcNAc6S = target: Gal6S(b1-3)GlcNAc6S
# In short: as §1
# Gal6S(b1-4)Glc = target: Gal6S(b1-4)Glc
# In short: as §1
# Gal6S(b1-4)Glc6S = target: Gal6S(b1-4)Glc6S
# In short: as §1
# Gal6S(b1-4)GlcNAc = target: Gal6S(b1-4)GlcNAc
# In short: as §1
# Gal6S(b1-4)GlcNAc6S = target: Gal6S(b1-4)GlcNAc6S
# In short: as §1
# GalNAc(a1-3)Gal = target: GalNAc(a1-3)Gal
# In short: as §1
# GalNAc(a1-3)GalNAc = target: GalNAc(a1-3)GalNAc
# In short: as §1
# [5] = target: GalNAc(a1-3)GalNAc(b1-3)Gal(a1-4)Gal(b1-4)Glc
# In short: as §1
# [6] = target: GalNAc(a1-3)GalNAc(b1-3)Gal(a1-4)Gal(b1-4)GlcNAc
# In short: as §1
# GalNAc(b1-3)Gal = target: GalNAc(b1-3)Gal
# In short: as §1
# [7] = target: GalNAc(b1-3)Gal(a1-4)Gal(b1-4)GlcNAc
# In short: as §1
# [8] = target: GalNAc(b1-3)Gal(a1-4)Gal(b1-4)GlcNAc(b1-3)Gal(b1-4)Glc
# In short: as §1
# [9] = target: GalNAc(b1-3)Gal(a1-6)Gal(b1-4)Glc
# In short: as §1
# GalNAc(b1-3)GalNAc = target: GalNAc(b1-3)GalNAc
# In short: as §1
# GalNAc(b1-3)GlcNAc = target: GalNAc(b1-3)GlcNAc
# In short: as §1
# GalNAc(b1-4)Gal(b1-4)Glc = target: GalNAc(b1-4)Gal(b1-4)Glc
# In short: as §1
# GalNAc(b1-4)GlcNAc = target: GalNAc(b1-4)GlcNAc
# In short: as §1
# [10] = target: GalNAc(b1-4)GlcNAc(b1-2)Man
# In short: as §1
# [11] = target: GalNAc(b1-4)GlcNAc(b1-2)Man(a1-3)[GalNAc(b1-4)GlcNAc(b1-2)Man(a1-6)]Man(b1-4)GlcNAc(b1-4)GlcNAc
# In short: as §1
# [12] = target: GalNAc(b1-4)GlcNAc(b1-3)GalNAc(b1-4)GlcNAc
# In short: as §1
# GalNAc(b1-4)GlcNAc6S = target: GalNAc(b1-4)GlcNAc6S
# In short: as §1
# GalNAc(b1-6)GalNAc = target: GalNAc(b1-6)GalNAc
# In short: as §1
# GalNAc3S(b1-4)GlcNAc = target: GalNAc3S(b1-4)GlcNAc
# In short: as §1
# GalNAc3S(b1-4)GlcNAc3S = target: GalNAc3S(b1-4)GlcNAc3S
# In short: as §1
# [13] = target: GalNAc3S(b1-4)[Fuc(a1-3)]GlcNAc
# In short: as §1
# GalNAc4S6S(b1-4)GlcNAc = target: GalNAc4S6S(b1-4)GlcNAc
# In short: as §1
# GalNAc6S(b1-4)GlcNAc = target: GalNAc6S(b1-4)GlcNAc
# In short: as §1
# Glc(a1-4)Glc = target: Glc(a1-4)Glc
# In short: as §1
# [14] = target: Glc(a1-4)Glc(a1-4)Glc(a1-4)Glc
# In short: as §1
# Glc(a1-6)Glc(a1-6)Glc = target: Glc(a1-6)Glc(a1-6)Glc
# In short: as §1
# [15] = target: Glc(a1-6)Glc(a1-6)Glc(a1-6)Glc
# In short: as §1
binder,measurement,setting,value
B1,glycan array binding signal (z-score),[1],-0.252
same,glycan array binding signal (z-score),Gal3S(b1-4)Glc,-0.298
same,glycan array binding signal (z-score),Gal3S(b1-4)Glc6S,-0.122
same,glycan array binding signal (z-score),Gal3S(b1-4)GlcNAc,-0.323
same,glycan array binding signal (z-score),[2],0.202
same,glycan array binding signal (z-score),[3],-0.353
same,glycan array binding signal (z-score),[4],0.168
same,glycan array binding signal (z-score),Gal3S4S(b1-4)GlcNAc,0.018
same,glycan array binding signal (z-score),Gal3S6S(b1-4)GlcNAc,0.092
same,glycan array binding signal (z-score),Gal3S6S(b1-4)GlcNAc6S,0.41
same,glycan array binding signal (z-score),Gal4S(b1-4)GlcNAc,-0.45
same,glycan array binding signal (z-score),Gal4S6S(b1-4)GlcNAc,-0.484
same,glycan array binding signal (z-score),Gal6P(b1-4)GlcNAc,-0.384
same,glycan array binding signal (z-score),Gal6S(b1-3)GlcNAc,-0.072
same,glycan array binding signal (z-score),Gal6S(b1-3)GlcNAc6S,-0.34
same,glycan array binding signal (z-score),Gal6S(b1-4)Glc,-0.14
same,glycan array binding signal (z-score),Gal6S(b1-4)Glc6S,0.168
same,glycan array binding signal (z-score),Gal6S(b1-4)GlcNAc,-0.187
same,glycan array binding signal (z-score),Gal6S(b1-4)GlcNAc6S,0.206
same,glycan array binding signal (z-score),GalNAc(a1-3)Gal,-0.414
same,glycan array binding signal (z-score),GalNAc(a1-3)GalNAc,-0.488
same,glycan array binding signal (z-score),[5],-0.187
same,glycan array binding signal (z-score),[6],-0.037
same,glycan array binding signal (z-score),GalNAc(b1-3)Gal,-0.469
same,glycan array binding signal (z-score),[7],0.209
same,glycan array binding signal (z-score),[8],-0.505
same,glycan array binding signal (z-score),[9],-0.052
same,glycan array binding signal (z-score),GalNAc(b1-3)GalNAc,-0.224
same,glycan array binding signal (z-score),GalNAc(b1-3)GlcNAc,-0.339
same,glycan array binding signal (z-score),GalNAc(b1-4)Gal(b1-4)Glc,-0.317
same,glycan array binding signal (z-score),GalNAc(b1-4)GlcNAc,-0.201
same,glycan array binding signal (z-score),[10],-0.374
same,glycan array binding signal (z-score),[11],0.055
same,glycan array binding signal (z-score),[12],0.216
same,glycan array binding signal (z-score),GalNAc(b1-4)GlcNAc6S,0.068
same,glycan array binding signal (z-score),GalNAc(b1-6)GalNAc,-0.387
same,glycan array binding signal (z-score),GalNAc3S(b1-4)GlcNAc,-0.153
same,glycan array binding signal (z-score),GalNAc3S(b1-4)GlcNAc3S,0.03
same,glycan array binding signal (z-score),[13],0.083
same,glycan array binding signal (z-score),GalNAc4S6S(b1-4)GlcNAc,-0.265
same,glycan array binding signal (z-score),GalNAc6S(b1-4)GlcNAc,-0.2
same,glycan array binding signal (z-score),Glc(a1-4)Glc,-0.206
same,glycan array binding signal (z-score),[14],-0.555
same,glycan array binding signal (z-score),Glc(a1-6)Glc(a1-6)Glc,-0.33
same,glycan array binding signal (z-score),[15],-0.444
